# Measurements taken from the supplement of paper PMC4604168 (melanoma cell lines).
# This is one part of the list. Single values are uncertain, as repeats are few or missing.
# System: SkMel5
# Experiment: cell count relative to DMSO control; melanoma cells; higher = more viable cells
# Details: library dose: standard library concentration; 72 h
# 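Note: cells treated in 1,536-well plates, then fixed and DAPI-stained, with nuclei counted from automated high-throughput microscope images.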
row,SMILES,cell count [%]
1,"CC1(C)CCC(c2ccc(Cl)cc2)=C(CN2CCN(c3ccc(C(=O)NS(=O)(=O)c4ccc(N[C@H](CCN5CCOCC5)CSc5ccccc5)c(S(=O)(=O)C(F)(F)F)c4)cc3)CC2)C1 + Oc1cc(-c2nc(-c3ccccc3)[nH]c2-c2ccncc2)ccc1Cl [L779450] (first compound 2 µM, partner dose 1 µM)",52.1
2,"CC1(C)CCC(c2ccc(Cl)cc2)=C(CN2CCN(c3ccc(C(=O)NS(=O)(=O)c4ccc(N[C@H](CCN5CCOCC5)CSc5ccccc5)c(S(=O)(=O)C(F)(F)F)c4)cc3)CC2)C1 + O=c1cc(-c2cccc3c2Sc2ccccc2S3)oc(N2CCOCC2)c1 [KU55933] (first compound 2 µM, partner dose 5 µM)",67.8
3,"O=C(/C=C/c1cccnc1)NCCCCC1CCN(C(=O)c2ccccc2)CC1 + c1cc(-c2cnn3cc(-c4ccc(OCCN5CCCCC5)cc4)cnc23)ccn1 [Dorsomorphin] (first compound 0.05 µM, partner dose 2 µM)",74.7
4,"Cc1ccc(Nc2nccc(N(C)c3ccc4c(C)n(C)nc4c3)n2)cc1S(N)(=O)=O [Pazopanib] + O=C(O)C(=O)Nc1sc2c(c1C(=O)O)CCNC2 [TCS401] (first compound 2 µM, partner dose 8.33333 µM)",73.4
5,"Cc1ccc(Nc2nccc(N(C)c3ccc4c(C)n(C)nc4c3)n2)cc1S(N)(=O)=O [Pazopanib] + COc1ccc(-c2ccc3c(N4CCOCC4)nc(N4C[C@@H](C)O[C@@H](C)C4)nc3n2)cc1CO [KU0063794] (first compound 2 µM, partner dose 0.1 µM)",76
